Consider one substance from patent publication US20060241289A1.

Some values that stand alone complete this part of the results.

For test [1], the target named is TSH receptor coated onto plastic tubes or ELISA plate wells (RSR Ltd) / detergent solubilised TSH receptor. Put plainly: 125I-TSH on TSHR coated tubes, sample diluted in serum.
For test [2] the target is unchanged. Kind of test: 125I-TSH on TSHR coated tubes, sample diluted in assay buffer.

As for hMAb TSHR1 Fab, the units/L (NIBSC 90/672) amounted to 1.05 units/L in test [1] (Fab at 3 ng/mL); 2.77 units/L in test [1] (Fab at 10 ng/mL); 8 units/L in test [1] (Fab at 30 ng/mL); 23.7 units/L in test [1] (Fab at 100 ng/mL); 0.8 units/L in test [2] (Fab at 3 ng/mL); 9.6 units/L in test [2] (Fab at 30 ng/mL). Besides, the units/L (NIBSC 90/672) in test [2] (Fab at 100 ng/mL) worked out at 16.9 units/L. Further, the units/mg (NIBSC 90/672) in test [1] (Fab at 3 ng/mL) was determined as 351 units/mg; in test [1] (Fab at 10 ng/mL), 277 units/mg; in test [1] (Fab at 30 ng/mL) it was 267 units/mg; in test [1] (Fab at 100 ng/mL), 237 units/mg.
